Experimental data: the supplement of paper PMC12632987
Whole data set: some 4,500 sequences, median “median log2 fold change of GCK-ALFA target abundance (FLAG IP / Myc IP barcode read proportion)” near 0.078, cut for the lowest 2% near -0.6. The list shows a part of the results.

B1: GBRAP_117_2593 (protein)
chain: SSKEEEALKRLKAAVERVAAVVAEQATLSPEEAAAALEAAKAELKELVKEVIEELGVEKALELAEEATLDADAETYFLVMSTVEEAVQEYKEEKEKEKLE
B2: GBRAP_160_4412 (protein)
chain: EELIKEVEELFEELRELVLELLEEGEREEAIAAVRVGAGEILLYVDESEEVSDEAEEEVDEVLDELVETVEENRDMSPEEVEELIEEAREKVIEILKKHL
B3: GBRAP_160_4310 (protein)
chain: KEELEALKKEVKEIFEEAKKLIEGETKEQQKAIVKVALGEVILLAFESPAITEEAEEKIAEIADEAIATLDANPDLTTEEIKKLLEEAEKKILELIEKLK
B4: GBRAP_184_5282 (protein)
chain: TVRHVEIEAETAAEAIAALRKAAAEARAAGAKLRLTILLKNADIDGILALFALLAELRAAGVIESAVLGIENEKTEEEIDTILAAADAAGVRVVIAIPDE
B5: GBRAP_125_3101 (protein)
chain: MEEELLEALKRFALALGFSEEDAEEAAELAKKFSLKQTLIALLLAEGEEELAELVEKLTEEEAKEVLLKLDEYLKKNPNASKEEVLKKFKELVEEALKAS
B6: GBRAP_160_4746 (protein)
chain: SEELKKLKKEIEEIFEEGIEILKEVPKEEALTVVRGTMGEVLMEVFSSDAASDELEEEIGKILDEAEKKAEENKNGSVEEYIKILEDARKKIEELLNKKI
B7: GBRAP_160_4471 (protein)
chain: KEKVEAAVEDLRRSVDEELERTADESPEQIATAAAVEVGSHLLEWSEAGTITDEQEDILAKAEDEILALGRTEPDASPAETIERIREIVDAAAAAILAAA
B8: GBRAP_184_5061 (protein)
chain: KVYERTIEVRNVEEARAKMAALAEEVKDHKGDLVVMLKMERFDREIVRAVLEGLGAIKKAGYVSSVTLGIDAETTEEEADFAVALADEQGVNVTLALSEE
B9: GBRAP_160_4379 (protein)
chain: SEELKELKEEVKKLKEEFKEEAKDLSTAEVRTLAIGVLSEIAALVWSNEAVSEETKDKIMKIIDDAIAKIRANADASPEEIVAIVTEAFDKIIELIEKEE
B10: GBRAP_52_5984 (protein)
chain: MREEMREHARRLVELELAGREEEARALLERLAAELSEEELEEIARELAELAKTASPEEIDAIVRVAELLEDVWLAAGRDEALADDGLARVAAAAYDALQA
B11: GBRAP_160_4011 (protein)
chain: GEEIEELKKEIKEIFEELKEWIKGETPEERLTLVKGAMGEVLELVFSSPAVSDETEDKIAEILDETEKEFEKNKNATLEEWYKLIDETLEKIFELLDKDE
B12: GBRAP_52_6132 (protein)
chain: MEERMRAIAEELVALAAAGDEEGLRKRVREIARELSDEEIIELARELGRMLLEADEETAELILRVAELLIDELPKAGRSEETVSEVEGIIARAGYEKELK
B13: GBRAP_184_5288 (protein)
chain: MVEKVVIEAENAEEAIEKIKEEAEKAKKEGVKLEIYLFLKNVDVEGFKKIMELLKKYKEEGIIKDAIVDILDERTEEETDEFVKIADEAGVKLVLALSDE
B14: GBRAP_160_4088 (protein)
chain: MEKVKKLIEEIKELAEEAKEMIEGESIEQRATIVRGLGGDVIMLLFESGVVSDEVEDFADEEFDALVATILANPDLTEAEIKALLDEVVEAVIKKIKAEA
B15: GBRAP_14_3807 (protein)
chain: MEEKKKAITDNTDELKEIVTEILKDAPQEVRDAVLAAIEDFRKTVIENNLNPDEIAELGDELVKKVEEITKDLPADVRARVLAAVRVHTGEIILEVEELE
B16: GBRAP_80_6764 (protein)
chain: MRERLEAALAELGELLPELAERLRETVERLLELGVPVELLLRLLEALVELAKLDKERAREILEEFIEEANEAIEAGDREEVEALVVDAESDALLEVEELE
B17: GBRAP_83_6886 (protein)
chain: KEKITVAGPGDRIEEMADIVIDLTKEEGYEVTVEILARPEELEKVKEGVKRLAEAGVNTEIVIYLEGATEEEAEELKEEIEEIAEEYGVDIEVEVILEEP
B18: GBRAP_128_3413 (protein)
chain: SREETVARARELLEAMLTADEETQRELARELAELILNSDLETAEAIAEVILEMLPRFTAEQLDILADELEKQRPLFTPEKQNLVAEVIVEALNRAEELEE
B19: GBRAP_150_3899 (protein)
chain: SWEEALLLAETALDLVEGIRDGEYSLLPHAIKLLKELVEELKEIDEELAKKAKKALELLLKAEKLIKAGGDEKEIQKLIDEAIKILEELVKEIKKKIKEK
B20: GBRAP_177_5017 (protein)
chain: MTLEELRAMIEDPNTTAEEVFKALIEAVKDLSAEEVIELLAEALNTKELDEESYKEAAKLILALEKEQGVSVATVFGYLIEHVDAEKVEKILEAYAEEEE
B21: GBRAP_125_3116 (protein)
chain: GMDATLENLATLMRALGFSEEDIEEALKLAREFGIKNTMIAFFLALGEEELADLAAQLSEEAVKEALARVAAYIAAHPDLTPEEVIAKTKEVLEEALAKQ
B22: GBRAP_160_4195 (protein)
chain: SAEIEALKKEIKEIAEEAIKMIEGQTYEERLVIVEGALGQIVLLLSESPVVSDEAEDEAAEIADEAIAYLRANPDLTEEEIKKLIKETTEKIIEVLDEAD
B23: GBRAP_52_5922 (protein)
chain: SAAAAEAAARAILDAALAGDEAAMKALIEELVKTFSDEEIETVIEALARLIAARGPEHYDLFAKIMDLLEDAAEKAGRDVELIQYAIARGFGILYDAEQA
B24: GBRAP_52_6274 (protein)
chain: MEEEAEELANEFIEVALNGTEEEIEAFAKELVATKSQELIAKVLEIVVEKAKSLNAEEIEKLLEAVLILEEELAEAGKDTLPAEDAAAELAKLHEEKLKA
B25: GBRAP_35_5505 (protein)
chain: SSMETEVEMLVATIEDAVLAVPDLPVEQAAAIANSLIKSAEELAKEAKDDPEGLERLLKAMEALLKAIKAHYGDDPLAQETAKKIEELIKELKKLLKEAK
B26: GBRAP_78_6659 (protein)
chain: EVEELLDKALELARELRKLAKGLSPEIQNLAAEVEVLVGEALYLYEVENASKEELIKQAEEALKKAEELKKKLEGVDEEALKAAEKLIKALEELIKALKK
B27: GBRAP_80_6793 (protein)
chain: AEERLRRALEEIERLDPELAERVRRIIELAREMGVPLEALADYAEAIAELLRLDPEEARRLVEELEELLEEEREEGNAEEAEAVVRVYAGEALLEVEELE
B28: GBRAP_26_5433 (protein)
chain: IEEILDEMRDRLEAAADELLDPELAAALKAEIDTLIYELEEKIEEENLSLEEIEKLLEEMVKELVEAAKTLGVPEEKIEKLRKAFEEAAEEALKRIKEER
B29: GBRAP_83_6987 (protein)
chain: AEKVTVAALGDRIKEAVEIAIDLTKEEGKEVSLEIIADKEDWPEVLEGVRRLAEAGIEAEIDVSVKGATPEEAKEMLEELKKIAKEHGSNFKIEVHVIEE

Biological target: GABARAP, O95166
Sequence (O95166 whole entry, the tested form may be a part): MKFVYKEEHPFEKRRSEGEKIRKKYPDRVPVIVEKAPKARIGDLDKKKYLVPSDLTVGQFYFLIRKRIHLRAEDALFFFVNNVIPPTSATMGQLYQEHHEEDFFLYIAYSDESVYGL
Test: median log2 fold change of GCK-ALFA target abundance (FLAG IP / Myc IP barcode read proportion) (log2 ratio); each designed protein is fused to an ALFA-tag nanobody in HEK293 cells to bring the named protein to FLAG-tagged glucokinase (GCK); Myc marks an untargeted standard; higher = target protein stabilised (more abundant)
Details: target protein: 3xFLAG-MCP-GCK-ALFA reporter; HEK293 landing pad (RPLP)
Outline: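 The readout is target abundance, the per-binder median log2 ratio of FLAG to Myc barcode read proportions. It came from HEK293 landing-pad cells carrying a recombined ALFA-nanobody-fused binder library, induced with 2 μg mL^−1 doxycycline and transfected with a plasmid for a FLAG-tagged target and a Myc-tagged standard. After 48 h, lysates were immunoprecipitated with anti-FLAG and anti-Myc, and circular RNA barcodes were reverse transcribed, amplified and sequenced. Each barcode needed a proportion of at least 10^−7 in both replicates and each binder at least 3 barcodes per replicate, a pseudocount of 10^−6 was added, and the replicates were pooled.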

Binder | median log2 fold change
B1 | 0.369
B2 | -0.257
B3 | -0.615
B4 | -0.157
B5 | -0.382
B6 | -0.196
B7 | 0.147
B8 | 0.317
B9 | 0.234
B10 | -0.0313
B11 | -0.0537
B12 | 0.123
B13 | 0.084
B14 | -0.086
B15 | 0.206
B16 | -0.163
B17 | 0.126
B18 | 0.188
B19 | 0.192
B20 | 0.0718
B21 | -0.314
B22 | -0.037
B23 | 0.0874
B24 | 0.0521
B25 | 0.317
B26 | 0.0581
B27 | -0.394
B28 | 0.22
B29 | 0.146
